± gives the standard deviation of the averaged measurements. Some of the results follow.

For this experiment, the system named is PfAP2-G AP2 domain (GST-tagged). Nature of the experiment: gcPBM binding intensity (ln(normalized median fluorescence intensity)); higher = stronger DNA binding. In outline: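 The highest Masliner-normalised natural-log median intensity across replicate spots of either probe orientation is reported as binding intensity. GST-tagged P. falciparum DNA-binding domains expressed in E. coli were applied for 1 h to an Agilent 4 × 180k array of primer-extended double-stranded 36-bp intergenic genomic probes plus negative controls, and bound protein was detected with Alexa488 anti-GST antibody and scanned at 488 nm.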
With “TTCAAATTTCCACATACACACCTTGTAGATATATAT [CACACA_site7984]”, the “gcPBM binding intensity (ln)” value turned out to be 10.055 ± 0.007. Next, “AAAAACTTAATATTGACACACATTTTTAAGAATAAT [CACACA_site4291]”: 10.07 ± 0.092; “ATTGAACACATCTATGCATGCACGGAAAAAAGTACA [TGCATGCA_site401]”: 11.3 ± 0.81; “TATATATTTTTTAATTGTACACTTCAAAAACAAAAA [XGTACX_site5595]”: 11.3 ± 0.79. Next, “ATAATCAACATTAGGTGTACAAAATATGTATGTTTT [XGTACX_site6696]”: 11.2 ± 0.67; “TATGCAATATATTATATTCTGTAAATATTATATATT [TGCATGCA_negctrl_site67]”: 9.37 ± 0.13. Next, “TTTTTTAAAATATGGACACACATATATATATCTGTA [CACACA_site5535]”: 10.8 ± 0.51; “AGAATTGTTGTTAAAGAATTCTTTTTTATCCTTCCC [CACACA_negctrl_site1820]”: 9.75 ± 0.11; “TTTGTATATATTAATGTACACACATGCGTATGTTCG [CACACA_site9193]”: 11.2 ± 0.73. With “AATATAGATATAAAAAGTACATTATATATATATATA [XGTACX_site6899]”, the “gcPBM binding intensity (ln)” value amounted to 11.3 ± 0.78. Take “AATATAAATAATATATGTACATATATATATATATAT [XGTACX_site1021]”: the “gcPBM binding intensity (ln)” value came out at 11.1 ± 0.61.

As for “AAAGTATTCTTTACACGTACATATATATAAATATAA [XGTACX_site7557]”, the “gcPBM binding intensity (ln)” value was 11.4 ± 0.82. The value for “AAAAAAAAAAAAAAGGTGCATACTTTGAATTAATAT [GTGCAC_site9401]” was 10.3 ± 0.26. The value for “TATACATACCATAATGCATGTAAGAACAAATAACTG [TGCATGCA_site264]” was 10.1 ± 0.16; that for “ATGACTCTCAAGTTTGCACACATTTATATTTTTTAA [CACACA_site2605]” was 10.2 ± 0.14. The value for “ATATATATATATATATGTACTAATTAATATTTCGAG [XGTACX_site580]” was 11 ± 0.78; that for TTTAAAATACAGAAGGTGCATTTAACATATTTGTAT was 9.935 ± 0.007; that for “TATATATATAAACACACACACATATATATATATATA [CACACA_site4584]” was 9.96 ± 0.32.

Take “AAAAAAAAAAAATGCACACATATATTTCCATATACA [CACACA_site1471]”: the “gcPBM binding intensity (ln)” value came to 10 ± 0.2. Consider “TATATATATTATATATGTACATATTATATATATATA [XGTACX_site7300]”, for which the “gcPBM binding intensity (ln)” value is 11.2 ± 0.88. As for “ATATATTTGATAAGAGTGCACAAATACATACATACA [GTGCAC_site9704]”, the “gcPBM binding intensity (ln)” value came out at 10.7 ± 0.44.

For “ACAAAATTTACAAAATGTACAAAATTTACAAAGTAT [XGTACX_site6463]”, the “gcPBM binding intensity (ln)” value is 10.6 ± 0.23.

On to “GTATATCATATTTCATGTACACAAAAAAATAAAAAT [XGTACX_site704]”, for which the “gcPBM binding intensity (ln)” value came to 11.5 ± 1. Next, “ACATCAAGCGGACACACACACACACCGACAGACACA [CACACA_site4361]”: 11.2 ± 0.57; AAAGAATCAAGAATAGTGCAAATATGTATAACCTTT: 9.76 ± 0.28. Turning to “ATAATACTACCTACATGTACTTATATATAAATGAAT [XGTACX_site3417]”, the “gcPBM binding intensity (ln)” value was found to be 11.5 ± 0.89. The value for GTTTTAACAAAATTAGTGCATTTATCAATTATATAA was 9.72 ± 0.085; that for “TTTTTTTTTTCAATGGCACACATTTTAGATTTATGC [CACACA_site1074]” was 10.2 ± 0.21. Next, “AATAACATGTTATATACACACATTATGAAGTCTTCA [CACACA_site746]”: 9.79 ± 0.11.

Consider “AAGATTATAAATATATGTACATAAATATATTATATA [XGTACX_site8056]”, for which the “gcPBM binding intensity (ln)” value worked out at 11.2 ± 0.67. Take “ATTGTTTTTTTTTCTTTGTGGAATGAATGAATATAT [XGTACX_negctrl_site603]”: the “gcPBM binding intensity (ln)” value was 10 ± 0.19. The value for “ATAAAATAATGAAAAACACACATTTTTATTTGTATA [CACACA_site3369]” was 9.62 ± 0.23. Next, “ATATATATATATGAATCACACACAAAAAATATAGAG [CACACA_site9298]”: 10.3 ± 0.24; “AAAAAAAAAAAAAAAACACACAAACATCAAATTATT [CACACA_site5083]”: 10.3 ± 0.19; “ATAATAATTTAATACATACACACGTATATCTTTTTT [CACACA_site2041]”: 9.995 ± 0.092.

Regarding “TTAATAAATAAAAATGCACACAGTTAACATGTTGAA [CACACA_site1200]”, the “gcPBM binding intensity (ln)” value is 10.1 ± 0.21. Next, “GCACATAAATATATGACACACACACCGATTATATAT [CACACA_site9003]”: 10.2 ± 0.14; “TTTTCAATATATTAATGTACGAATACGCAAATAAGA [XGTACX_site1613]”: 11.1 ± 0.83; “ATACAAAAAGTAAAAAGTACTTAACTAAATATATAA [XGTACX_site2335]”: 11.2 ± 0.79. Next, “ATCTTATATGATCACACACACACGCACAAAACAGAA [CACACA_site4913]”: 10.6 ± 0.47; “GCAGGATTGGTTCAAACACACATATTATATGACTAT [CACACA_site660]”: 10.02 ± 0.028. The value for “TTTTTTTTTTTTTTTGCACACACATAATAGGTACAA [CACACA_site3578]” was 11.3 ± 1.2; that for “TTTGCACCGTTTAAGTGTACAGAATTATGACATATA [XGTACX_site6735]” was 11.1 ± 0.67.

“TCAAAAATATTCTGGAGTACCTTTTTAAAGGTATAG [XGTACX_site6893]”: the “gcPBM binding intensity (ln)” value was determined as 11 ± 0.61.

For “TTTATATATATATATATATATAATAAATGATACACA [TGCATGCA_negctrl_site392]”, the “gcPBM binding intensity (ln)” value was determined as 9.79 ± 0.19. On to “TATTTTTTTTCTTATACACACCATGCATCAAACTAA [CACACA_site5208]”, for which the “gcPBM binding intensity (ln)” value came out at 10.4 ± 0.38. Next, “TGTGGTTACATGTGCACACACTTATTTCGTTCTTAT [CACACA_site4907]”: 10.8 ± 0.33; “TAAATATATATATACACACACATACACAAAAAAAAA [CACACA_site3580]”: 10.2 ± 0.18; “ATTGCATATAATGGCACACATAAATCCATAATATAT [CACACA_site297]”: 10.13 ± 0.092.

In the case of “TTTTATTCCTTCTTTGCACACGTTTAAAAATATATA [CACACA_site2899]”, the “gcPBM binding intensity (ln)” value is 10.4 ± 0.33. The value for “AATATAATATAAGGATCACACACAAACACCCATATA [CACACA_site8084]” was 10.3 ± 0.23. The value for “TAATCGAAACAAAGAACATGCAAACATATACCTATA [TGCATGCA_site894]” was 9.865 ± 0.049. The value for “CAAAATTTATGTAAAAGTACAAAAATATAGAAAGAT [XGTACX_site1122]” was 11.1 ± 0.56; that for “TGTGTTCATCTATGCACACGCATATATATTATTGTT [CACACA_site5985]” was 9.89 ± 0.014; that for “TAAAAAAAAAAAAAAACACACATATAAATATATATA [CACACA_site1243]” was 9.51 ± 0.085.

As for “AAAATTAAAAAGAACACACAAATATATCTATAATAA [CACACA_site7660]”, the “gcPBM binding intensity (ln)” value was 9.81 ± 0.26. The value for “TAAGTTATATGTATATGTACTTATATATATATATAT [XGTACX_site5402]” was 11.1 ± 0.79. The value for “ATTAAAAAAATTAAAAGTACACATATTTCAATGATA [XGTACX_site5606]” was 11.6 ± 0.92; that for “TAAAAAAAAAAAACAAGTACATATATAAATATATAT [XGTACX_site7537]” was 11.2 ± 1.1. The value for “TTTTTATTTAATAATATATTAATCATATAAATAAAT [GTGCAC_negctrl_site210]” was 9.48 ± 0.11; that for “TATTTAATTACATGAACACACATTATGTATTTTTAA [CACACA_site2962]” was 9.855 ± 0.064.

Regarding “GTATGTTTGTTATGCACACAAATGCATCTTATTTCC [CACACA_site2690]”, the “gcPBM binding intensity (ln)” value turned out to be 10.3 ± 0.18. Next, “TTTAATTATAAGATAACACACAAAAAAAATAAAATA [CACACA_site254]”: 10.1 ± 0.21; “TTTATATAAAAAAATTGTACATATTTATTATAAACA [XGTACX_site2124]”: 11.1 ± 0.78; “TGTATGCATATTTGATGTACGCACATATACTAATTT [XGTACX_site3159]”: 11.5 ± 0.83.

For the sequence “TATATTCTTATTATTGCATGCTGCACGAAGATTTTC [TGCATGCA_site831]”, the “gcPBM binding intensity (ln)” value was found to be 9.88 ± 0.028. Consider “ATAATAAATAAAATAACACACATATATAGATATATA [CACACA_site6224]”, for which the “gcPBM binding intensity (ln)” value came to 9.84. “TTTTCATTAAATATATATGCATACCATATGTACATT [GTGCAC_negctrl_site539]”: the “gcPBM binding intensity (ln)” value worked out at 10.9 ± 0.74. Turning to “TATGTAAAGAGTAAGGGTACATGTATAATACGGCTC [XGTACX_site1283]”, the “gcPBM binding intensity (ln)” value worked out at 11.2 ± 0.64. Take AATTTCAAATTGTATGTGCACATGTAGAAGTACTTT: the “gcPBM binding intensity (ln)” value came to 11.4 ± 0.98. Next, “GTGCCTTTAAAAAAAAGTACAAAAAAGAACGAATTA [XGTACX_site3714]”: 11.5 ± 0.97; “AAAAAAAAAAAAAGCACACACACATATGAGTATATA [CACACA_site4682]”: 10.08 ± 0.099. Next, “TATATATATATATATTGTACATTTTTTTTTTTTTTT [XGTACX_site7891]”: 10.8 ± 0.74; “AAATACTATATCAAGCGTACTTATTTCATGGTAATA [XGTACX_site7878]”: 11.3 ± 0.72.

Regarding “TTTAAAATATTTTCTTGTACGAAGGAACATTTCTTA [XGTACX_site4013]”, the “gcPBM binding intensity (ln)” value was found to be 10.6 ± 0.43. Next, “TCGACAAAGGCATATACACACATTTGTAACATAAAT [CACACA_site4471]”: 9.97 ± 0.014; “GTTTTTTTGTTTTAGTGTACCTAAAACTGCATGTAG [XGTACX_site294]”: 11.4 ± 0.7.

In the case of “TTATGGATAAATAAATGTACGTTAAGATAACACAAA [XGTACX_site4208]”, the “gcPBM binding intensity (ln)” value came out at 11 ± 0.7.

For the sequence “ATTTCTCTATAGTAATGTACAAAAAAAAGGAAAAAG [XGTACX_site2757]”, the “gcPBM binding intensity (ln)” value came out at 10.8 ± 0.46.

Take “ACATAAAATAAATATACACACATATGTATTTATTAT [CACACA_site5648]”: the “gcPBM binding intensity (ln)” value came to 9.85 ± 0.057. The value for “AAACCGAATTTACATGAATGTAAATTATGTTGTTTT [CACACA_negctrl_site1834]” was 9.53 ± 0.13; that for “CAAGAATAAAAATACAAGCACACATGTATGAAATAT [CACACA_site3214]” was 10.08 ± 0.014; that for “ATTTCATTAAAGATTACATGCAATTCTATATTATTT [TGCATGCA_site260]” was 9.77 ± 0.13. Next, “AATTAATTTATTTTATAAATAGTTAGATCGTCATAA [GTGCAC_negctrl_site660]”: 9.9 ± 0.13; “ACTTTCAAGGATGTACGTACATATGTATTTTATAAC [XGTACX_site6714]”: 11.7 ± 0.91; “AACATAAATTACTTTTTACACACTAATATAAAATAC [CACACA_site8297]”: 10.2 ± 0.28. The value for “AATTGCTCGATATATGCACACAGTTTTGTTATTTTT [CACACA_site8465]” was 10.1 ± 0.057; that for “AAAACACGCGGACACACACACACACGCCCACATATA [CACACA_site7105]” was 11.5 ± 0.89. Turning to “AAAAAAAAAACAAATACACACGCACCCAAAAAAAAA [CACACA_site8166]”, the “gcPBM binding intensity (ln)” value was 10.5 ± 0.26.

Values taken from the supplement of paper PMC11417369.
